Experimental data taken from PubChem BioAssay AID1963576 (National Center for Advancing Translational Sciences (NCATS), 2024).
The whole screen tested about 46,000 compounds, of which about 60 (0.1%) were called active. Another 3% or so got no clear call; they are omitted. Calls come from the whole dose curve; as a rule, active = well fitted inhibition curve with a large enough effect; inconclusive = small, poorly fitted or top-dose-only effect; inactive = no such curve, though single readings can be large or run the other way. Some of the results follow.

test: Primary qHTS assay for Inhibitors of ovarian cancer metastasis using an organotypic tumor microenvironment (TME) model.; note: nearly all actives have a fitted effect of over 65% in size;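 for activity change, negative = inhibition: plate controls were DMSO wells for no effect and tomatine positive control wells for full effect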; settings: SKOV3ip1-GFP adhesion/invasion on 3D omental model, fluorescence; series mostly up to 45.8 µM; activity change, negative = inhibition: at the top concentration
Outline: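 Adhesion/invasion was scored as fixed GFP-labeled SKOV3ip1 cell counts (488/509 nm), normalized to DMSO and tomatine controls. Cancer cells in serum-free medium, with four compound doses (0.36-46 umol/L), sat 2 hr at RT then 16 hr at 37 C on a 48 hr fibroblast/mesothelial/ECM culture.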

outcome, inactive:
Cc1ccc(C(=O)CSc2nc(-c3ccccc3)nc3c2CCCC3)cc1
CCOC(=O)CSc1nc(-c2ccc(C)cc2C)cc(-c2ccccc2)c1C#N
Cc1cccc(NS(=O)(=O)c2c(C)nc3sccn3c2=O)c1C
CCSc1nc2c([nH]c3ccccc32)c(=O)n1CC
O=C(Cn1c(=O)nc(-c2ccccc2)c2ccccc21)Nc1cccc(C(F)(F)F)c1
Cc1cccc(CSc2ncc(Cl)c(C(=O)Nc3sc4c(c3C(N)=O)CCCC4)n2)c1
CC(=O)N1CCc2c(sc(NC(=O)CSc3ccccc3)c2-c2nc3ccccc3s2)C1
COc1ccc(-c2cn(-c3ccc(C)cc3)c(S(=O)(=O)CC(=O)Nc3ccc(F)cc3)n2)cc1
COc1cc(Nc2nc(SCC(=O)c3ccc(Br)cc3)nc3ccccc23)cc(OC)c1
O=C(CCC(=O)N1CC2CCCN2c2ccccc21)NCc1ccc(Cl)cc1 (stereo not drawn)
CCC1=C(c2ccc(C)cc2)S(=O)(=O)N=C1N1CCC(C(=O)Nc2ccccc2F)CC1
Cc1ccc(NC(=O)Cn2ncn3c(cc4ccccc43)c2=O)cc1F
COc1ccc(CNC(=O)CCCN2C(=O)CSc3c2c(C)nn3-c2ccccc2)cc1
CCN(CC)CCNC(=O)C1CCN(c2nn3cc(-c4ccc(F)cc4)nc3s2)CC1
Oc1ccccc1-c1nc(/C=C/c2ccccc2Cl)nn1-c1ccccc1
COc1cc(NC(=O)c2cccc3c2C(=O)N(C2CCCCC2)C3)cc(OC)c1OC
COc1cc2ccccc2cc1C(=O)Nc1ccc2oc(-c3ccc(F)cc3Cl)nc2c1
CCc1ccc(CNC(=O)c2c(C)oc3ncnc(N4CCOCC4)c23)cc1
COc1cccc(C(=O)Nc2c(C(=O)N3CCN(c4ccc(F)cc4)CC3)oc3ccccc23)c1
O=C(Cc1ccc(F)cc1)Nc1nnc2n1CCS2
CCOc1ccccc1-n1nnc(-c2nsc(NC(=O)c3ccc(C)cc3)n2)c1C
CCc1ccccc1OCC(=O)Nc1ccc(S(=O)(=O)Nc2nc(C)cc(C)n2)cc1
O=C(NCCn1ccc2ccccc21)c1ccc(Cl)cc1
COc1ccc(NC(=O)Cn2c(=O)n(Cc3nc(-c4ccccc4)no3)c(=O)c3ccccc32)cc1Cl
CC(=O)N1CCc2cc(S(=O)(=O)NC(C(=O)Nc3ccc(C)cc3C)C(C)C)ccc21 (stereo not drawn)
COc1cc(C(=O)n2nc(C)c(Sc3ccc(Cl)cc3)c2C)cc(OC)c1OC
CC(C)c1ccc(NC(=O)CN2C(=O)COc3ccc(S(=O)(=O)N4CCCCCC4)cc32)cc1
O=C(NCc1cccc(Cl)c1)c1ccc2nc(N3CCCCC3)sc2c1
COc1ccccc1N1CCN(c2ncnc3onc(-c4cccc(Cl)c4)c23)CC1

Activity change, negative = inhibition, inactive:
CCOc1ccccc1NC(=O)N1CC(CC)Oc2ccccc21 (stereo not drawn) -1.6%
O=C(NCc1ccccc1Cl)c1cc2c(s1)-c1ccc(Cl)cc1SC2 -4.03%
COc1cccc(CNCCNC(=O)c2nonc2N)c1 -27.2%
COC(=O)c1ccc2c(C(=Nc3ccc(N(C)C(=O)CN4CCN(C)CC4)cc3)c3ccccc3)c(O)[nH]c2c1 -3.3%
COc1cccc(-n2c(=O)c3c(C)c(C)sc3n(CC(=O)NCc3ccc(C)cc3)c2=O)c1 9.83%
CC(C)(C)C(=O)Nc1cccc(-c2cn3cccnc3n2)c1 -14.9%
CCOc1ccc(CCNC(=O)c2cc3c(=O)oc4ccc(C)cc4c3s2)cc1OCC 42.6%
Cc1ccc(Cc2c(C)nc3nc(SCC(=O)NC4CCC(C)CC4)nn3c2C)cc1 (stereo not drawn) 1.23%
CCOC(=O)c1ccc2c(c1)N(CC(=O)N(C)c1ccccc1)C(=O)c1ccccc1S2 -1.02%
COc1ccccc1NC(=O)c1cc(=O)c2ccc(C)c(C)c2o1 -8.54%
CC1CCCCN1C(=O)CSc1n[nH]c(-c2ccccc2Cl)n1 (stereo not drawn) -4.68%
O=C(CC1N=C2c3ccccc3N=C(SCc3cccc(Cl)c3)N2C1=O)NCc1ccc2c(c1)OCO2 (stereo not drawn) -0.112%
Cc1nn(CCC(=O)Nc2cc(F)ccc2F)c(=O)c2nn(-c3ccccc3)c(C)c12 0.475%
N#C/C(=C\c1ccc(-c2ccc(C(=O)O)cc2)o1)C(=O)Nc1ccccc1C(=O)O -2.77%
O=C(OCc1cc(=O)n2nc(-c3cccs3)sc2n1)c1ccc(Cl)cc1 0.641%
COc1ccc(-c2nc3ccc(NS(=O)(=O)c4ccc(C)cc4)cc3o2)cc1 -7.79%
O=c1[nH]cnc2c1ncn2[C@H]1CC[C@@H](CO)O1 2.91%
CC(C)OCCCNC(=O)c1ccc(CSc2nc3cccnc3n2Cc2ccccc2)cc1 7.56%
CCN(C(=O)c1nn(-c2ccc(OC)c(Cl)c2)c(=O)c2c1c1ccccc1n2C)c1cccc(C(F)(F)F)c1 -0.896%
O=C(CN1C(=O)COc2ccc(Cl)cc21)Nc1ccc(F)cc1 3.81%
Cc1nc2nc(CNC(=O)OC(C)(C)C)nn2c(C)c1CCC(=O)NCc1ccc(F)cc1 1.47%
CCC1CCC(C(=O)NC(C(=O)Nc2cccc(OC)c2)C(C)C)CC1 (stereo not drawn) 5.03%
Cc1cc(CN2CCN(c3ccccc3F)CC2)cs1 1.32%
Cc1cccc(NC(=O)CSc2nnc3[nH]c(=O)cc(-c4ccccc4)n23)c1C 0.919%
CCOc1ccc(CNCc2c(C(=O)O)c(C)n(Cc3cccc(OC)c3)c2C)cc1OC 0.954%
Cc1ccc(Cn2c(C(=O)NCc3ccccc3Cl)cc3sccc32)cc1 -0.308%
Cc1nc2sccn2c(=O)c1S(=O)(=O)Nc1ccc(N2CCOCC2)c(Cl)c1 -4.87%
COC(=O)c1cc2sc(C)cc2n1Cc1cccc(OC)c1 -15.1%
COc1ccc(C2Nc3ccccc3-c3cc(C)nn32)cc1OC (stereo not drawn) -9.97%
CCOc1cc(C(=O)Nc2cc3c(cc2N2CCOCC2)n(C)c(=O)n3C)cc(OCC)c1OCC -9.19%
O=c1cc(-c2ccccc2)nc(SCc2nc(-c3ccccc3Cl)no2)[nH]1 -2.45%
Cc1cccn2c(=O)c(C(=O)NCc3ccc(F)cc3)c(O)nc12 1.39%
CCOC(=O)c1c(C)[nH]c(C)c1S(=O)(=O)N1CCCC(C(=O)NCc2cccc(C)c2)C1 (stereo not drawn) 2.63%
CCOC(=O)c1c(-c2ccc(OC)cc2)oc2ccc(OCc3ccccc3C)cc12 9.68%
CNc1ncnc2c1cnn2-c1ccc(C)c(C)c1 7.43%
Cc1ccccc1CNC(=O)CCCn1c(=O)c2cccn2c2cccnc21 -18.1%
Fc1ccc([C@@H]2CCNC[C@H]2COc2ccc3c(c2)OCO3)cc1 0.698%
Cc1cccc(NC(=O)c2ccc(-n3cnc4cccnc43)cc2)c1C 32.2%
Cc1ccc(N2CC(NC(=O)c3cccs3)CC2=O)cc1C (stereo not drawn) -11.4%
CCc1ccc(C(=O)c2cn(CC(=O)Nc3ccc4c(c3)OCO4)c3ccc(OC)cc3c2=O)cc1 -8.62%
Cc1ccccc1OCc1ccc(-c2nc(C#N)c(NCc3cccnc3)o2)o1 0.0086%
CCOc1cc(/C=C(\C#N)C(=O)NCC2CCCO2)ccc1O (stereo not drawn) 0.757%
CC1=C(c2ccc(C)c(C)c2)S(=O)(=O)N=C1N1CCC(C(=O)N2CCC(C)CC2)CC1 -3.18%
COc1ccc(OC)c(CNC(=O)C(C)n2c(C)c3cnn(-c4ccccc4)c(=O)c3c2C)c1 (stereo not drawn) 6.88%
CCOc1ccc(NC(=O)C2CCC(CNS(=O)(=O)c3ccc(Br)s3)CC2)cc1 (stereo not drawn) 2.76%
C[C@H]1COc2c(N3CCN(C)CC3)c(F)cc3c(=O)c(C(=O)O)cn1c23 9.46%
Cc1cccc(NC(=O)N2CCC3(CC2)Oc2ccccc2C(=O)N3Cc2ccccc2F)c1C 1.13%
CCOc1ccc(C(=O)c2oc3ccccc3c2NC(=O)Cc2coc3ccc(CC)cc23)cc1 -6.33%
COc1ccccc1NC(=O)CSc1nc(-c2ccc(C(C)(C)C)cc2)c(C#N)c(=O)[nH]1 -26.1%
CC(C)c1ccc(Nc2cc(C(=O)NC3CCCCC3)c3ccccc3n2)cc1 -4.82%
CCc1ccc2occ(CC(=O)Nc3ccccc3C(F)(F)F)c2c1 -7.99%
CCc1cccc(-n2c(=O)c3cccnc3n2CC(=O)Nc2ccc(F)c(C)c2)c1 -3.8%
COc1ccc(/C=C/C(=O)Nc2nc3n(n2)C(c2ccc(F)cc2)C=C(c2ccccc2)N3)cc1 (stereo not drawn) 11.3%
CSc1cccc(Nc2cc(C(=O)NCCCN(C)c3ccccc3)c3ccccc3n2)c1 -9.52%
CCOC(=O)c1c(-c2ccc(C)cc2)csc1NC(=O)c1cc(=O)c2ccc(C)cc2o1 -14.1%
COc1ccc(NC(=O)C2CCCN(S(=O)(=O)c3ccc(Br)s3)C2)cc1 (stereo not drawn) -14.9%
NC(CO)C(=O)NNCc1ccc(O)c(O)c1O (stereo not drawn) -8.11%
O=C(NCc1cccs1)c1ccc(CSc2nc3cccnc3n2Cc2ccccc2F)cc1 4.29%
CCc1ccc(NC(=O)Cn2c(=O)n(Cc3ccco3)c(=O)c3oc4ccccc4c32)cc1 -7.36%
COc1cccc(CNC(=O)Cc2c(C(=O)O)c(C)cn2C)c1 -1.31%
COc1ccc(CC(=O)NCC(c2cccs2)S(=O)(=O)c2ccc(C)cc2)cc1 (stereo not drawn) -0.94%
CCc1cccc(N2C(=O)CSC23C(=O)Nc2ccccc23)c1 (stereo not drawn) 26.1%
COc1ccc(S(=O)(=O)Nc2c(C)nc3nc(C)[nH]n3c2=O)cc1 0.367%
CCOC(=O)c1c(C)n(-c2ccccc2)c2ccc(OC(=O)c3cccc(OC)c3OC)cc12 1.01%
Cc1oc(-c2ccccc2Cl)nc1CSc1nc2ncccc2[nH]1 9.59%
Cc1cc(C)c(NC(=O)Cn2cnc3c(oc4ccccc43)c2=O)c(C)c1 26.1%
CCOc1ccc(CNS(=O)(=O)c2ccc3c(c2)CCCN3C(C)=O)cc1OC -17%
CCc1nnc2c(N3CCN(c4cc(Cl)ccc4C)CC3)nc3ccccc3n12 -4.85%
CCOC(=O)C1CCCN(C(=O)c2nn(-c3ccc(C)cc3)c(=O)n(C)c2=O)C1 (stereo not drawn) 3.03%
